Measurements reported in patent US10772972B2, “Anti-STEAP2 antibody drug conjugates, and compositions and uses thereof” (Regeneron Pharmaceuticals, Inc., priority 2016, dated 2020).
Positions count from the first letter of the chain named. One block for each molecule: values may come before it.

Assays:
monkey PBMCs = experiment: T cell proliferation assay, cynomolgus PBMC; assay type: cell-based; conditions: across donors tested
Procedure: Thawed human or freshly isolated monkey PBMCs (50,000 cells/well) were incubated with 3-fold (human, concentration range: 5E-10M to 2.82E-15M; cynomolgus, concentration range: 1E-09M to 4.57E-13M) serial dilutions of STEAP2×CD3 bispecifics or isotype control in complete medium (RPMI supplemented with 10% FBS, 100 U/mL penicillin, 100 μg/mL streptomycin, 292 μg/mL L-glutamine) and a fixed concentration (human: 200 ng/mL, cyno: 500 ng/mL) of a commercial anti-CD28 antibody (Biolegend, Catalog #302914) in white flat bottom 96-well plates for 72 hours at 37° C. Isolated monkey PBMCs were from two donors (identified as mk8781M or mk9381M). Following incubation, CellTiter Glo® (Promega, Cat #7573) was added and luminescence, as readout for cell viability, was measured using a VICTOR X5 multi-label plate reader. Cell titer was calculated by dividing the luminescence of stimulated cells by the baseline luminescence of unstimulated cells.

cynomolgus T cells = experiment: FACS binding titration of STEAP2xCD3 bispecifics on cynomolgus T cells; conditions: 66.6 nM to 0.001 nM, 30 minutes at 4° C.
Procedure: FACS Binding Titration on Jurkat Cells, PC3_STEAP2/1 Cells and cynomolgus T Cells: Flow cytometric analysis was utilized to determine binding of STEAP2×CD3 bispecific antibodies to Jurkat, PC3_STEAP2/1 chimeric and cynomolgus T cells, followed by detection with a phycoerythrin (PE)-labeled anti-human IgG antibody. Briefly, 2×10^5 cells/well were incubated for 30 minutes at 4° C. with a serial dilution of STEAP2×CD3 bispecific antibodies or control antibody (a human IgG1 antibody that binds a feline antigen with no cross-reactivity to STEAP2 or human or cynomolgus CD3) ranging from 66.6 nM to 0.001 nM. After incubation, the cells were washed twice with cold PBS containing 1% filtered FBS and a PE-conjugated anti-human secondary antibody was added to the cells and incubated for an additional 30 minutes. Wells containing no antibody or secondary antibody only were used as a control. After incubation, cells were washed, re-suspended in 200 μL cold PBS containing 1% filtered FBS and analyzed by flow cytometry on a BD FACS Canto II.

[1] = tested on: C4-2 cells (high-STEAP2 expressing); experiment: Internalization and total binding on C4-2 cells (imaging, qualitative score); assay type: cell-based, human; parameters: key: − (no internalization or binding); +(weak internalization or binding); ++(moderate internalization or binding); +++(robust internalization or binding); conditions: 10 μg/ml antibody
Procedure: Briefly, 20,000 C4-2 cells were seeded in PDL coated 96 well plates. The next day, cells were incubated with anti-human STEAP2 antibodies (10 μg/ml) for 30 min on ice followed by two PBS washes. Cells were then incubated with alexa488-conjugated anti-hFc Fab secondary antibody for 30 minutes on ice, followed by two additional PBS washes. Antibodies were allowed to internalize for 1 h at 37° C. in internalization buffer (PBS+2% FBS) or were maintained at 4° C. Cells were fixed in 4% formaldehyde, nuclei were stained with DRAQ5 (Cell signaling), and images were acquired on the ImageXpress micro XL (Molecular Devices).
A qualitative visual assessment of the total binding intensity and the intensity of antibodies that had internalized into vesicles was performed and scored according to the following criteria: − (no internalization or binding), +(weak internalization or binding), ++(moderate internalization or binding) and +++(robust internalization or binding).

[2] = tested on: FADU cells (STEAP2 negative); experiment: FACS binding to STEAP2-negative FADU cells; conditions: human-Fc antibodies
Procedure: (§1) The ability of anti-STEAP2 antibodies to selectively bind to human six-transmembrane epithelial antigen of prostate 2 (STEAP2) endogenously expressing cell lines was determined via FACS analysis.
(§2) Briefly, 1×10^5 cells were incubated with 10 μg/ml of anti STEAP2 antibodies, or isotype control antibodies for 30 min on ice in antibody dilution buffer. Following one wash with antibody dilution buffer, cells were incubated with 10 μg/ml of PE conjugated anti-human or anti mouse Fc secondary antibodies for 30 min on ice. Following one additional wash, samples were incubated with Cytofix (1% formaldehyde) for 20 minutes. After one final wash, samples were filtered through a Pall 96 well filtration block, run on a Hypercyt® cytometer and analyzed in ForeCyt™ (IntelliCyt, Albuquerque, N. Mex.). Mean fluorescence intensities (MFI) were expressed as fold change above unstained levels (background). The average fold above background at antibody concentrations of 100-300 nM were determined. For cell binding EC50 determinations, mAb concentrations ranged from 300 nM to […] and EC50 values were determined from a four-parameter logistic equation over a 12-point response curve (GraphPad Prism).

[3] = tested on: Raji cells (STEAP2 negative); experiment: FACS binding to STEAP2-negative Raji cells; conditions: human-Fc antibodies
Procedure: as §1, §2

- EC50 (cynomolgus T cells): 16.6 nM
B1: BSSTEAP2/CD3-008: STEAP2×CD3 bispecific: anti-STEAP2 H1H11163 (SEQ 266), anti-CD3 H1H7208P (SEQ 1490), common LCVR SEQ 274 (antibody, V domains shown)
VH 1: QVQLQQSGPGLVKPSQALSLTCAISGDSVSSNSAAWNWIRQSPSRGLEWLGRTYYRSKWYNDYAVSVKSRITINPDTSKNHFSLHLNSMTPEDTAVYYCARARIVVVPGPEVYYYYYYDMDVWGQGTTVTVSS
VH 2: QVQLVESGGGLVHPGRSLRLSCAASGFKFDDYTMHWVRQAPGKGLEWVSDISWNSGSKGYADSVKGRFTISRDNAKDSLYLQMDSLRAADTAFYYCAKDKSGYGHFYYYAMDVWGQGTTVTVSS
VL: [about 100 residues not shown]PITFGQGTRLEIK
- Cynomolgus PBMC proliferation activity (in words) (monkey PBMCs): donor dependent

B2: H1M11243N: anti-STEAP2 hybridoma-generated antibody, mouse IgG1 Fc; variable regions presumably as H1H11243N (antibody, V domains shown)
VH: B1 VH 1 with A17T, H81Q, M89V, R103G, E111D, V112I, D119G
VL: [about 100 residues not shown]PITFGQGTRLEIK
- Internalization (37° C., 1 h) Qualitative Score [1]: +
- Total Binding (4° C.) Qualitative Score [1]: +

B3: H1H11163N: human-Fc anti-STEAP2 antibody, HCVR/LCVR SEQ ID NOs 266/274 (antibody, V domains shown)
VH: B1 VH 1
VL: [about 100 residues not shown]PITFGQGTRLEIK
modifications: human Fc
- FADU Avg F.A.B (Fold Above Background) [2]: 2 fold
- Internalization (37° C., 1 h) Qualitative Score [1]: ++
- Total Binding (4° C.) Qualitative Score [1]: ++
- Raji Avg F.A.B (Fold Above Background) [3]: 2 fold

B4: H1H11243N: anti-STEAP2 antibody, HCVR/LCVR SEQ ID NOs 2/10 (antibody, V domains shown)
VH: B1 VH 1 with A17T, H81Q, M89V, R103G, E111D, V112I, D119G
VL: [about 100 residues not shown]PITFGQGTRLEIK
- FADU Avg F.A.B (Fold Above Background) [2]: 2 fold
- Raji Avg F.A.B (Fold Above Background) [3]: 2 fold

B5: H2M11163N: anti-STEAP2 antibody, mouse IgG2 Fc, HCVR/LCVR SEQ ID NOs 266/274 (antibody, V domains shown)
VH: B1 VH 1
VL: [about 100 residues not shown]PITFGQGTRLEIK
modifications: mouse IgG2 Fc
- Internalization (37° C., 1 h) Qualitative Score [1]: ++
- Total Binding (4° C.) Qualitative Score [1]: ++

B6: H1H11878P: anti-STEAP2 antibody, HCVR/LCVR SEQ ID NOs 18/26 (antibody, V domains shown)
VH: [about 100 residues not shown]IGMVVSGANYYYYYGMDVWGQGTTVTVSS
VL: AIQMTQSPSSLSAYVGDRVIITCRASQGIRNDLGWYQQKPGKAPKLLIYAASSLQSGVPSRFSGSRSGTVFTLTISSLQPEDFATYYCLQDYNYPWTFGQGTKVEIK
- Internalization (37° C., 1 h) Qualitative Score [1]: +
- Total Binding (4° C.) Qualitative Score [1]: +
